Experimental data as given in PubChem BioAssay AID504845 (National Center for Advancing Translational Sciences (NCATS), 2011).
Screen size: about 390,000 compounds; about 150 (0.038%) were called active. Inconclusive results, whose numbers are uncertain, are shown with a selection of clear calls. Calls follow the shape of the dose curve; as a rule, active = well fitted inhibition curve with a large enough effect; inconclusive = small, poorly fitted or top-dose-only effect; inactive = no such curve, though single readings can be large or run the other way. Potencies of inconclusive entries are doubtful fits and often do not repeat.

What follows are compounds tested against Regulator of G-protein signaling 4 (Homo sapiens) (UniProt P49798) (assay: Inhibitors of Regulator of G Protein Signaling (RGS) 4: qHTS). Details: Transcreener GDP fluorescence polarization, RGS4-accelerated GTP hydrolysis; series mostly up to 114 µM.
Chain of UniProt P49798 (P49798 whole entry, looked up): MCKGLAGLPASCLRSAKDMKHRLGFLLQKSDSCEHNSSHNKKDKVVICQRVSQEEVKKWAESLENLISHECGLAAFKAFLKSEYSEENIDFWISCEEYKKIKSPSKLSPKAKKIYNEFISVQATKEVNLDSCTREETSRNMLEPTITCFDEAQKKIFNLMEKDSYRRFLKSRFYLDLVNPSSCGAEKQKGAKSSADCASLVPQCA
How it was run: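 MLSMR compounds (23 nl, pin-transferred) preincubated 10 min at room temperature with a 500nM (2x) first reagent, then RGS4 at 900nM (2x) plus Transcreener GDP mix added; fluorescence polarization (620/688 nm) read before and after 90 min at 30 °C.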
% is scaled to controls: 0 for no effect and ±100 for the full control effect; potency is read from the fitted curve at half-maximal effect; tags tell the direction and shape of the fitted curve.
Also: nearly all actives have a fitted effect of over 75% in size.

| Compound | Potency | activity change, negative = inhibition |
| --- | --- | --- |
| CC(=O)Nc1ccc2c(c1)Cc1cc(N3C(=O)C=CC3=O)ccc1-2 | inconclusive: 17.8 µM [inhibitor, full curve, poor fit] |  |
| O=C(Nc1ccc(NC(=O)c2cc3ccccc3o2)cc1)c1ccco1 | inactive |  |
| Cc1nc2sccn2c(=O)c1CCN1CCC(=C(c2ccccc2)c2ccc(F)cc2)CC1 | inconclusive: 4.22 µM [inhibitor, partial curve, poor fit] |  |
| COc1ccc(-c2oc3ccccc3c2C(=O)OCc2ccccc2)cc1 | inconclusive: 79.4 µM [inhibitor, single point] |  |
| CCOc1c(Cl)cc(/C=N/NC(N)=S)cc1OC | inconclusive: 50.1 µM [inhibitor, partial curve, poor fit] |  |
| Clc1ccc(-c2nc3nc4ccccc4nc3n2Cc2ccco2)cc1 | inconclusive: 89.1 µM [inhibitor, single point] |  |
| CCOP(=O)(OCC)C(C#N)=C1SCN(c2ccccc2)CS1 | inconclusive: 70.8 µM [inhibitor, partial curve, poor fit] |  |
| COc1ccc(OC)c(C(=O)NC(CC(N)=O)c2ccc(NCCN3CCCC3)c([N+](=O)[O-])c2)c1 (stereo not given) | inconclusive: 100 µM [inhibitor, single point] |  |
| CC(C)c1ccc(Nc2nnc(SCC(=O)c3nnc(-c4ccccc4)o3)s2)cc1 | inconclusive: 28.2 µM [inhibitor, full curve, poor fit] |  |
| COc1ccc(OC)c(N=Nc2c(O)c3ccccc3[nH]c2=O)c1 | inconclusive: 44.7 µM [inhibitor, partial curve, poor fit] |  |
| CC(C)(C)c1nnc2sc(SCC(=O)N3CCc4ccccc43)nn2c1=O | inconclusive: 20 µM [inhibitor, full curve, poor fit] |  |
| Cc1ccc(Cn2c(C)nc3c(c2=O)c2nc4ccccc4nc2n3Cc2ccco2)cc1 | inconclusive: 50.1 µM [inhibitor, partial curve, poor fit] |  |
| Cn1c(C(=O)NC2CCCC2)cc2c(=O)n(C)c3ccccc3c21 | inconclusive: 50.1 µM [inhibitor, partial curve, poor fit] |  |
| CCOC(=O)N1CCC(NC(=O)c2ccc3c(c2)N=C(CC)c2cc(C)ccc2S3)CC1 |  | inactive: 4.43% [at 11.4 µM] |
| O=C(COC(=O)C1CCN(c2ccc(C(F)(F)F)cn2)CC1)Nc1cccc(F)c1 | inconclusive: 70.8 µM [inhibitor, single point] |  |
| Cc1ccc(S(=O)(=O)NCc2ccco2)cc1C(N)=O | inconclusive: 35.5 µM [inhibitor, partial curve, poor fit] |  |
| CC(C)(C)C(=O)N1CCc2cc(-c3csc(N)n3)ccc21 | inconclusive: 17.8 µM [inhibitor, full curve, poor fit] |  |
| CC(C(=O)Nc1ccc2c(c1)OCO2)N(C)CC(=O)Nc1ccccc1Cl (stereo not given) | inactive |  |
| COc1cccc2c1C(CCCC(=O)O)CCC2 (stereo not given) | inactive |  |
| COc1ccc2cc(C#N)c(N3CCN(Cc4nnnn4CCC(C)C)CC3)nc2c1 |  | inactive: -0.414% [at 11.4 µM] |

| Compound | Potency | activity change, negative = inhibition |
| --- | --- | --- |
| CCCSc1nc(O)c(C(c2ccc(OC)c(O)c2)c2c(O)nc(SCCC)n(C)c2=O)c(=O)n1C | inconclusive: 35.5 µM [inhibitor, partial curve, poor fit] |  |
| COc1cccc(CN(C)C(=O)C(CCSC)NS(=O)(=O)c2ccc3c(c2)OCCO3)c1OC (stereo not given) | inactive |  |
| COc1ccc(-n2c(SCC(N)=O)nc3c(oc4ccccc43)c2=O)cc1 | inactive |  |
| O=C(O)CCCN1C(=O)/C(=C\c2ccco2)SC1=S | inconclusive: 50.1 µM [inhibitor, partial curve, poor fit] |  |
| NC(N)=NC(=O)c1nc(Cl)c(N2CCCCCC2)nc1N | inconclusive: 1.5 µM [inhibitor, partial curve, poor fit] |  |
| CCN(CC)CC(=O)c1ccc(-c2ccccc2)cc1 | inconclusive: 100 µM [inhibitor, partial curve, poor fit] |  |
| Cn1nccc1C(=O)NC1CCCc2c1cnn2-c1ccc(C(C)(C)C)cc1 (stereo not given) | inactive |  |
| C=CCn1c(NC(=O)c2ccc(Br)o2)c(C(=O)OCC)sc1=S | inconclusive: 28.2 µM [inhibitor, full curve, poor fit] |  |
| O=S(=O)(c1ccc(N2CCOCC2)c(Cl)c1)N1CCOCC1 | inactive |  |
| COCCn1c(C)cc(C(=O)COC(=O)c2ccc(NC(=O)CC#N)cc2)c1C | inconclusive: 89.1 µM [inhibitor, single point] |  |
| CC(=O)Sc1nc(-c2ccccc2)[nH]c1S(=O)(=O)c1ccc(C)cc1 | inconclusive: 17.8 µM [inhibitor, full curve, poor fit] |  |
| O=C(/C=C/c1ccccc1)N/C(=C/c1ccccc1)C(=O)Nc1ccc(C(=O)O)cc1 | inconclusive: 44.7 µM [inhibitor, partial curve, poor fit] |  |
| CC(=NNC(=S)N1CCN(c2ccccn2)CC1)c1nccs1 | inconclusive: 50.1 µM [inhibitor, partial curve, poor fit] |  |
| O=C(Cn1nc(-c2ccco2)ccc1=O)Nc1ccc(Br)cc1 | inconclusive: 56.2 µM [inhibitor, partial curve, poor fit] |  |
| COc1ccc(C2NS(=O)(=O)N=C2N)cc1 (stereo not given) | inconclusive: 35.5 µM [inhibitor, full curve, poor fit] |  |
| CCC(=O)N1CCc2cc(S(=O)(=O)CCC(=O)Nc3cccc(F)c3)ccc21 | inconclusive: 79.4 µM [inhibitor, single point] |  |
| Cc1sc2nc(CSc3ccccc3)nc(N3CCN(C)CC3)c2c1C | inactive |  |
| COc1cc(C(Nc2ccccn2)c2ccc3ccc(C)nc3c2O)cc(OC)c1O (stereo not given) | inconclusive: 50.1 µM [inhibitor, partial curve, poor fit] |  |
| O=C(CC(O)c1ccncc1)c1ccccc1O (stereo not given) | inconclusive: 17.8 µM [inhibitor, full curve, poor fit] |  |
| O=C(/C=C/c1cccc(O)c1)c1cccnc1 | inconclusive: 44.7 µM [inhibitor, partial curve, poor fit] |  |
